# According to PMC4336329 (PLoS ONE, 2015):
# Screen size: about 310,000 compounds; about 2,200 (0.71%) showed an effect of 50% or more. Effects have a minus sign here. The list shows a part of the results.
# Target: human ether-à-go-go-related gene (hERG) potassium channel (human, UniProt Q12809)
# Assay: primary screen, population patch clamp on CHO cells stably expressing hERG
# Sequence of human ether-à-go-go-related gene (hERG) potassium channel (Q12809 whole entry, looked up): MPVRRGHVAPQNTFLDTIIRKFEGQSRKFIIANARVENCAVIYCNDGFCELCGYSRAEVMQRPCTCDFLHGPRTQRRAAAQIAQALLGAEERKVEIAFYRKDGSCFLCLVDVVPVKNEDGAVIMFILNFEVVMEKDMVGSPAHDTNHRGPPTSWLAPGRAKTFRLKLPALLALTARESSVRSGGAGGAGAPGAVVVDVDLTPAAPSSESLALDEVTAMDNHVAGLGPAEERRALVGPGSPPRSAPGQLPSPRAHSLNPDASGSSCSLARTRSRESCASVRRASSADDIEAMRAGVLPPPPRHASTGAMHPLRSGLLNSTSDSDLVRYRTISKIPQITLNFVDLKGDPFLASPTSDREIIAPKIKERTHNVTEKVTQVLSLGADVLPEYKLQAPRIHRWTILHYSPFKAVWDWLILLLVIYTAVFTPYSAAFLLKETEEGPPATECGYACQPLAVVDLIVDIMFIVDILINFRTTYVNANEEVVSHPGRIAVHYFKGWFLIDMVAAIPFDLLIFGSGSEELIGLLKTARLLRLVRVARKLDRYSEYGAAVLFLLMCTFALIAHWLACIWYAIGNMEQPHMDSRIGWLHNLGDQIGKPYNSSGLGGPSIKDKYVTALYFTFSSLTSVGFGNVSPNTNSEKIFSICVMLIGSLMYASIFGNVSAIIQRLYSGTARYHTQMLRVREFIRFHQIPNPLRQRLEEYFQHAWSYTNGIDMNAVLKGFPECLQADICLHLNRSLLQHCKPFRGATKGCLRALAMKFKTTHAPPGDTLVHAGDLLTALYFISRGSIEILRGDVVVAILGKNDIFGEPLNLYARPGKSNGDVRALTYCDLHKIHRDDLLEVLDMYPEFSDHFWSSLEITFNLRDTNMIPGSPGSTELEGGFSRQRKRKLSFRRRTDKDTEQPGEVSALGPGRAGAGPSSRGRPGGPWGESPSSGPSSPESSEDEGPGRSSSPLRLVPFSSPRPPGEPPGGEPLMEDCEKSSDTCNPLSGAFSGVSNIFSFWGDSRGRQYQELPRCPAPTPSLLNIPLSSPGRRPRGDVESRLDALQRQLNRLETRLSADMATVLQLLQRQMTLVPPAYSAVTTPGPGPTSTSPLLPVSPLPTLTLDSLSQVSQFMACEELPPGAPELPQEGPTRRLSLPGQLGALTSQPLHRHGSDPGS
row,Structure (SMILES),"hERG current change (%, negative = inhibition) at 1uM [%]"
1,C#CCSc1nnc(-c2sc(-c3ccccc3)nc2C)n1C,0.883
2,CCOc1ccccc1Nc1nc2ccccc2n2cnnc12,13
3,COc1cc2c(c(OC)c1OC)CC(=O)N(C)CC2,6.98
4,O=C(CN1C(=O)CSc2ccccc21)N1CCc2ccccc21,9.93
5,CCOc1ccc(-c2nnn(CCC(=O)O)n2)cc1OC,10.8
6,CCOC(=O)/C(Sc1nc(-c2ccccc2)cc(-c2ccccc2)c1C#N)=C(\C)O,14.2
7,Cc1cccc(-n2nc(C)c3c(C(=O)O)cc(-c4cccs4)nc32)c1,4.29
8,Cc1ccc(OC(=O)c2cncc(Br)c2)c(C)c1,14.2
9,CC(=O)NC1C(Oc2ccccc2C)OC2COC(c3ccco3)OC2C1O (stereo not drawn),13
10,CCOC(=O)[C@@H]1[C@H]2COc3ccccc3[C@@H]2N2C(=O)N(c3cccc(Cl)c3)C(=O)[C@@]12C,6.04
11,COc1ccc(N2CCN(C(=O)Cn3nnc(-c4cccs4)n3)CC2)cc1,17.3
12,C[C@@H](C(=O)N1CCN(C(=O)OC(C)(C)C)CC1)n1cc(CCC(=O)O)nn1,16.5
13,O=C(Cc1ccccc1)NCCSCc1ccc(Cl)cc1,2
14,COc1ccc(Cc2nnc(NC(=O)c3ccc(OC(C)=O)cc3)s2)cc1OC,14.2
15,O=C(O)Cn1cc(F)c(=O)[nH]c1=O,6.96
16,N#C/C(=C\c1ccc[nH]1)C(=O)NC1CC1,8.93
17,COCCN(C(=O)CSc1nnc(-c2ccc(C)cc2)n1N)c1c(N)n(Cc2ccccc2)c(=O)[nH]c1=O,20.8
18,CCc1nc(N2CCCC2)c(C#N)c2c1CCCC2,10.1
19,N/C(=N\OC(=O)COc1ccccc1)c1ccccn1,10.1
20,O=C(Cn1ccc2ccccc2c1=O)NCC(=O)N1CCC2(CC1)OCCO2,14.7
21,O=C(C#Cc1cccc([N+](=O)[O-])c1)c1ccccc1,17.6
22,COC(=O)c1sccc1NC(=O)C1CCCCC1C(=O)O (stereo not drawn),13.9
23,Cc1ccc(NC(=O)Cn2ccc([N+](=O)[O-])n2)cc1Cl,1.29

row,Structure (SMILES),"hERG current change (%, negative = inhibition) at 1uM [%]"
1,N/C(=N\OC(=O)CC1CCCCC1)c1ccccn1,6.05
2,COc1ccc(C(F)(F)F)cc1N/C=C\c1nnnn1-c1ccc(C)cc1,-2.43
3,C(=N\n1cnnc1)/c1ccc2c(c1)OCCO2,7.76
4,O=C(CSc1cc(Cl)ccc1Cl)NCC(=O)Nc1ccc(F)c(F)c1F,7.46
5,Cc1cc(SC2CCOC2=O)nc2ccccc12 (stereo not drawn),10.8
6,N#CCCCCN1c2cccc3cccc(c23)S1(=O)=O,11.5
7,Cn1c(=O)c(=O)n(C)c2cc(S(=O)(=O)N3CCCC3C(=O)NCc3cccs3)ccc21 (stereo not drawn),12.6
8,Cc1cccc2c3c([nH]c12)CCN(C)C3,4.68
9,Clc1cccc(Cl)c1CO/N=C/c1c(-c2ccccc2)nc2n1CCS2,7.73
10,COc1cc(OC)c(/C=N/NC(=O)c2ccncc2)c(OC)c1,13.6
11,C#Cc1ccc([C@H]2C=C(C(=O)OCC=C)O[C@@H](OCC)[C@@H]2CCCO)cc1,13
12,CC(C)c1nnc(NC(=O)CCC(=O)NC2CCCCCC2)s1,9.93
13,Cc1ccc(C(=O)NNc2ncnc3c2cnn3C)cc1,15.1
14,CCc1[nH]nc2c1C1(C(=O)N(Cc3ccccc3)c3ccccc31)C(C#N)=C(N)O2 (stereo not drawn),15.5
15,COc1ccc(-c2csc(Nc3ccc(C)cn3)n2)cc1,6.34
16,Nc1cc(=O)[nH]c(SCC(=O)N2CCCc3ccccc32)n1,7.38
17,CCc1ccc(/C([O-])=C(/C(=S)NCCN2CCOCC2)[n+]2ccccc2)cc1,6.2
18,COc1ccccc1C(=O)NNC(=O)C(=O)N1CCCCC1,12.4
19,Fc1cnc(N/N=C/c2ccc(-c3ccc(Br)cc3)o2)nc1N1CCOCC1,16.7
20,CC(C)Oc1cccc(C(=O)N/N=C/c2coc3ccccc3c2=O)c1,9.98
21,CCOC(=O)N1CCN(C(=O)C2CCN(Cc3cccc(OCc4ccccc4)c3)CC2)CC1.O=C(O)C(=O)O,4.61
22,COC(=O)C(C(=O)OC)C(C[N+](=O)[O-])c1ccc(OC)c(OC)c1 (stereo not drawn),-8.09
23,CCOc1ccc2nc(COC(=O)c3cccc([N+](=O)[O-])c3)c(C(C)=O)[n+]([O-])c2c1,15.3

row,Structure (SMILES),"hERG current change (%, negative = inhibition) at 1uM [%]"
1,C/C(=N/NC(N)=S)c1cc2ccc(O)cc2oc1=O,6.01
2,COc1ccc(NCc2cc(=O)oc3cc(NC(C)=O)ccc23)cc1,9.67
3,COc1ccc(C)cc1S(=O)(=O)Nc1cccc(C)c1,6.42
4,Cc1ccc(Oc2ncnc(N)c2[N+](=O)[O-])cc1,9.92
5,COC(=O)c1cc(C(=O)OCC(=O)NC(=O)NCc2ccccc2)cc([N+](=O)[O-])c1,11.1
6,O=C(NCCN1CCN(Cc2ccccc2)CC1)C1c2ccccc2C(=O)N2CCc3ccccc3C12 (stereo not drawn),9.42
7,COC(=O)c1cc(NC(=O)c2cc(-c3ccccc3Cl)oc2C(F)(F)F)ccc1N1CCOCC1,13.7
8,Cc1cccc(C)c1OCC(=O)N/N=C/c1ccc2c(c1)OCO2,7.97
9,CCOC(=O)c1cnc(SC)nc1N1CCCC1,8.81
10,CCC(=O)N1CCc2cc(S(=O)(=O)NCCC(=O)N3CCN(c4ccccc4)CC3)ccc21,18.7
11,C=C(C)c1cccc(C(C)(C)NC(=O)N2CCN(c3ccccc3)CC2)c1,11.6
12,COc1ccc(OCC(=O)Nc2ccc(NC(=O)c3ccco3)cc2)cc1,6.97
13,CCN(CC)c1ccc(CNCc2cccs2)cc1.Cl,8.89
14,CCc1nc(SCC(=O)N2CCOCC2)c2c(=O)n(C)c(=O)n(C)c2n1,-1.43
15,O=c1[nH]c(SCc2cccc(Cl)c2)nc2ccccc12,3.9
16,CCOc1ccc(S(=O)(=O)/N=C(\N)c2ccccc2)cc1,7.8
17,CCc1nnc(NS(=O)(=O)c2ccc(NCc3cc(Br)ccc3O)cc2)s1,5.5
18,O=C(c1ccc(Cl)cc1)C1CCCN(Cc2cnn(-c3ccccc3)c2)C1 (stereo not drawn),-23.9
19,COCCCN(C(=O)CSCc1ccc(C)cc1)c1c(N)n(Cc2ccccc2)c(=O)[nH]c1=O,8.74
20,Nc1cc(N)nc(SCC(=O)N2CCN(C(=O)c3ccco3)CC2)n1,0.379
21,O=C(CCC(=O)N1CCOc2ccccc21)NCCCN1CCN(Cc2ccccc2)CC1,-41.9
22,Cc1nc(C(=O)NNC(=O)c2cccc(Cl)c2)c(C(F)(F)F)o1,12.6
23,O=[N+]([O-])c1ccc(F)cc1Oc1nc(-c2cccnc2)nc2ccccc12,10.7

row,Structure (SMILES),"hERG current change (%, negative = inhibition) at 1uM [%]"
1,OC(CN1CCC(Cc2ccccc2)CC1)C(F)(F)F (stereo not drawn),6.98
2,O=C1O[C@H]([C@@H](O)CO)C(O)=C1O,12.2
3,Cc1ccc(C)c(NS(=O)(=O)c2cc(C(=O)Nc3ccccc3-c3ccccc3)ccc2Cl)c1,7.69
4,CC1CCN(C(=O)/C(=C\c2cccs2)NC(=O)c2ccccc2)CC1,-0.7
5,Cc1cc(NC(=O)C(C)SCC(=O)OC(C)C(=O)Nc2ccccc2C)no1 (stereo not drawn),9.36
6,CCOC(=O)CN1C(=O)CN(c2ccc(C)c(C)c2)C1=O,7.26
7,O=C(c1cc(COc2ccc(F)c(F)c2)on1)N1CCSCC1,-4.71
8,Cc1cc(-c2ccccc2)c(C#N)c(=S)[nH]1,13.3
9,COC(=O)Nc1ncc(CN2CCCCC2)s1,8.18
10,Cc1ccc(NC(=O)CCC(=O)NNC(=O)Nc2cccc(Cl)c2)c(C)c1,3.3
11,O=c1[nH]cnc2c1cnn2Cc1ccccc1Cl,15.1
12,O=C(CN1C(=O)c2ccccc2S1(=O)=O)c1ccc2c(c1)OCCCO2,8.94
13,CC(C)(C)n1nc2c(c1NC(=O)Cc1cccc3ccccc13)CS(=O)C2 (stereo not drawn),8.29
14,C1CN(c2nc(N3CCOCC3)nc(N3CCOCC3)n2)CCO1,6.06
15,O=[N+]([O-])c1cccc(S(=O)(=O)N2CCC(c3nc(-c4ccncc4)no3)CC2)c1,4.01
16,NC(=S)N/N=C\c1ccccc1OCc1ccccc1,5.58
17,COc1ccc([N+](=O)[O-])cc1NC(=O)C(C)Sc1ccc(C)cc1 (stereo not drawn),13.5
18,COc1ccc(N(C(=O)c2ccncc2)S(=O)(=O)c2ccc(OC)c(OC)c2)cc1,-1.41
19,O=C(NCc1cccs1)c1ccc(Cl)c(S(=O)(=O)N2CCCC2)c1,2.49
20,CC1CCCCN1C(=S)NCc1ccccc1 (stereo not drawn),7.17
21,CCOc1ccc(Cl)cc1S(=O)(=O)N1CCC(C(=O)NC2CC2)CC1,5.07
